Results as given in the supplement of paper PMC8728848.
The list shows a part of the results.

What was measured:
Experiment in all cases: glycan array binding signal (z-score within array); higher = stronger binding
Settings in all cases: glycan notation: IUPAC condensed, linker removed
[1] = target: Fuc(a1-2)[Gal(a1-3)]Gal(b1-4)GlcNAc(b1-2)Man(a1-3)[Fuc(a1-2)[Gal(a1-3)]Gal(b1-4)GlcNAc(b1-2)Man(a1-6)]Man(b1-4)GlcNAc(b1-4)[Fuc(a1-6)]GlcNAc
Outline: (§1)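 Columns mapping to the same glycan were averaged after glycan names were converted to IUPAC-condensed notation. The data come from 3228 arrays in the Consortium for Functional Glycomics database, limited to those with an available protein sequence. Binding is reported as a within-array Z-score averaged across arrays of one protein sequence and across linkers.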

[2] = target: Fuc(a1-2)[Gal(a1-3)]Gal(b1-4)GlcNAc(b1-3)GalNAc
Outline: as §1

[3] = target: Fuc(a1-2)[Gal(a1-3)]Gal(b1-4)GlcNAc(b1-3)[Fuc(a1-2)[Gal(a1-3)]Gal(b1-4)GlcNAc(b1-6)]GalNAc
Outline: as §1

[4] = target: Fuc(a1-2)[Gal(a1-3)]Gal(b1-4)GlcNAc(b1-6)GalNAc
Outline: as §1

[5] = target: Fuc(a1-2)[Gal(a1-3)]Gal(b1-4)[Fuc(a1-3)]Glc
Outline: as §1

[6] = target: Fuc(a1-2)[Gal(a1-3)]Gal(b1-4)[Fuc(a1-3)]GlcNAc
Outline: as §1

[7] = target: Fuc(a1-2)[Gal(a1-3)]Gal(b1-4)[Fuc(a1-3)]GlcNAc(b1-3)GalNAc
Outline: as §1

[8] = target: Fuc(a1-2)[Gal(a1-4)]Gal(b1-4)GlcNAc
Outline: as §1

[9] = target: Fuc(a1-2)[GalNAc(a1-3)]Gal
Outline: as §1

[10] = target: Fuc(a1-2)[GalNAc(a1-3)]Gal(b1-3)GalNAc(a1-3)[Fuc(a1-2)]Gal(b1-4)GlcNAc
Outline: as §1

[11] = target: Fuc(a1-2)[GalNAc(a1-3)]Gal(b1-3)GalNAc(b1-3)Gal(a1-4)Gal(b1-4)Glc
Outline: as §1

[12] = target: Fuc(a1-2)[GalNAc(a1-3)]Gal(b1-3)GlcNAc
Outline: as §1

[13] = target: Fuc(a1-2)[GalNAc(a1-3)]Gal(b1-3)GlcNAc(b1-2)Man(a1-3)[Fuc(a1-2)[GalNAc(a1-3)]Gal(b1-3)GlcNAc(b1-2)Man(a1-6)]Man(b1-4)GlcNAc(b1-4)GlcNAc
Outline: as §1

[14] = target: Fuc(a1-2)[GalNAc(a1-3)]Gal(b1-3)GlcNAc(b1-2)Man(a1-3)[Fuc(a1-2)[GalNAc(a1-3)]Gal(b1-3)GlcNAc(b1-2)Man(a1-6)]Man(b1-4)GlcNAc(b1-4)[Fuc(a1-6)]GlcNAc
Outline: as §1

[15] = target: Fuc(a1-2)[GalNAc(a1-3)]Gal(b1-3)GlcNAc(b1-3)GalNAc
Outline: as §1

[16] = target: Fuc(a1-2)[GalNAc(a1-3)]Gal(b1-3)GlcNAc(b1-6)GalNAc
Outline: as §1

[17] = target: Fuc(a1-2)[GalNAc(a1-3)]Gal(b1-4)Glc
Outline: as §1

[18] = target: Fuc(a1-2)[GalNAc(a1-3)]Gal(b1-4)GlcNAc
Outline: as §1

[19] = target: Fuc(a1-2)[GalNAc(a1-3)]Gal(b1-4)GlcNAc(b1-2)Man
Outline: as §1

[20] = target: Fuc(a1-2)[GalNAc(a1-3)]Gal(b1-4)GlcNAc(b1-2)Man(a1-3)[Fuc(a1-2)[GalNAc(a1-3)]Gal(b1-4)GlcNAc(b1-2)Man(a1-6)]Man(b1-4)GlcNAc(b1-4)GlcNAc
Outline: as §1

[21] = target: Fuc(a1-2)[GalNAc(a1-3)]Gal(b1-4)GlcNAc(b1-2)Man(a1-3)[Fuc(a1-2)[GalNAc(a1-3)]Gal(b1-4)GlcNAc(b1-2)Man(a1-6)]Man(b1-4)GlcNAc(b1-4)[Fuc(a1-6)]GlcNAc
Outline: as §1

[22] = target: Fuc(a1-2)[GalNAc(a1-3)]Gal(b1-4)GlcNAc(b1-3)Gal(b1-4)GlcNAc
Outline: as §1

[23] = target: Fuc(a1-2)[GalNAc(a1-3)]Gal(b1-4)GlcNAc(b1-3)Gal(b1-4)GlcNAc(b1-3)Gal(b1-4)GlcNAc
Outline: as §1

[24] = target: Fuc(a1-2)[GalNAc(a1-3)]Gal(b1-4)GlcNAc(b1-3)GalNAc
Outline: as §1

[25] = target: Fuc(a1-2)[GalNAc(a1-3)]Gal(b1-4)GlcNAc(b1-3)[Fuc(a1-2)[GalNAc(a1-3)]Gal(b1-4)GlcNAc(b1-6)]GalNAc
Outline: as §1

[26] = target: Fuc(a1-2)[GalNAc(a1-3)]Gal(b1-4)GlcNAc(b1-6)GalNAc
Outline: as §1

[27] = target: Fuc(a1-2)[GalNAc(a1-3)]Gal(b1-4)[Fuc(a1-3)]GlcNAc
Outline: as §1

[28] = target: Fuc(a1-2)[GalNAc(a1-3)]Gal(b1-4)[Fuc(a1-3)]GlcNAc(b1-3)GalNAc
Outline: as §1

[29] = target: Fuc(a1-2)[GalNAc(a1-4)]Gal(b1-4)GlcNAc
Outline: as §1

[30] = target: Fuc(a1-2)[GalNAc(b1-3)]Gal
Outline: as §1

Fuc(a1-3)GlcNAc = target: Fuc(a1-3)GlcNAc
Outline: as §1

[31] = target: Fuc(a1-3)[Gal(b1-4)]Glc6S
Outline: as §1

[32] = target: Fuc(a1-3)[Gal(b1-4)]GlcNAc
Outline: as §1

[33] = target: Fuc(a1-3)[Gal(b1-4)]GlcNAc(b1-2)Man
Outline: as §1

[34] = target: Fuc(a1-3)[Gal(b1-4)]GlcNAc(b1-2)Man(a1-3)[Fuc(a1-3)[Gal(b1-4)]GlcNAc(b1-2)Man(a1-6)]Man(b1-4)GlcNAc(b1-4)GlcNAc
Outline: as §1

[35] = target: Fuc(a1-3)[Gal(b1-4)]GlcNAc(b1-2)Man(a1-3)[Fuc(a1-3)[Gal(b1-4)]GlcNAc(b1-2)Man(a1-6)]Man(b1-4)GlcNAc(b1-4)[Fuc(a1-6)]GlcNAc
Outline: as §1

[36] = target: Fuc(a1-3)[Gal(b1-4)]GlcNAc(b1-3)Gal(b1-3)[Fuc(a1-4)]GlcNAc
Outline: as §1

[37] = target: Fuc(a1-3)[Gal(b1-4)]GlcNAc(b1-3)Gal(b1-4)[Fuc(a1-3)]GlcNAc
Outline: as §1

[38] = target: Fuc(a1-3)[Gal(b1-4)]GlcNAc(b1-3)Gal(b1-4)[Fuc(a1-3)]GlcNAc(b1-3)Gal(b1-4)[Fuc(a1-3)]GlcNAc
Outline: as §1

[39] = target: Fuc(a1-3)[Gal(b1-4)]GlcNAc(b1-3)GalNAc
Outline: as §1

[40] = target: Fuc(a1-3)[Gal(b1-4)]GlcNAc(b1-6)GalNAc
Outline: as §1

[41] = target: Fuc(a1-3)[Gal(b1-4)]GlcNAc(b1-6)[Gal(b1-3)GlcNAc(b1-3)]Gal(b1-4)Glc
Outline: as §1

[42] = target: Fuc(a1-3)[Gal(b1-4)]GlcNAc6S
Outline: as §1

[43] = target: Fuc(a1-3)[Gal3S(b1-4)]Glc
Outline: as §1

[44] = target: Fuc(a1-3)[Gal3S(b1-4)]GlcNAc
Outline: as §1

B1: PX14375F-bfa-539-21-539 (Bacteroides fragilis) (protein)
chain: EDFLQKDPPSSPSQSVFWQKKSDFESALAGTYSVMYSGVFSQIMPCLDGLTDNAIVQHSEGTYGWAKTIAQGDLTPNQGGFVTDIYGNCYKGIARVHILMEQLDQYTGSDISADEKKFMLAQCKALRGYFYSWLYQCYKEVPVVTQSLDLNTMYQPKATRAEVLNRVMTDYDEAISELPDKLYSDSQTSGRFTVSAVKALKARILLFDAYDSNGKAISSKMEEVLTLLQSIKGYSLAARVRDNFISEKQLASPEIMFSVRFLRPNLTHSMDLYYGAWAVLDPTRNMVDAFECTDGKPWGESPLTVRPDESILYGNDDALKKAERAKMFMNRDRRLYESVNHSMMANFVDDGFKDEEVQVNESNNKGPTGFSALKYVQPTDVTPGYSTVSDADIVVLRYAHVLLMIAEAENEAHGATTTALNAINEVRTRSGQPAIEAGISQDDLRERIRNEWRIETCFEGLRYFQLKRWKLMDKRVNGVEDPAYPGYIKVYKPAFEFFPIPQSEIDKAGGVLKQDPAYE
glycan array binding signal (z-score) [1]: 0.409
glycan array binding signal (z-score) [2]: -0.141
glycan array binding signal (z-score) [3]: -0.101
glycan array binding signal (z-score) [4]: -0.683
glycan array binding signal (z-score) [5]: -0.207
glycan array binding signal (z-score) [6]: -0.185
glycan array binding signal (z-score) [7]: 1.2
glycan array binding signal (z-score) [8]: 2.7
glycan array binding signal (z-score) [9]: -0.451
glycan array binding signal (z-score) [10]: -0.658
glycan array binding signal (z-score) [11]: -0.41
glycan array binding signal (z-score) [12]: -0.815
glycan array binding signal (z-score) [13]: -0.023
glycan array binding signal (z-score) [14]: -0.461
glycan array binding signal (z-score) [15]: 0.51
glycan array binding signal (z-score) [16]: -0.063
glycan array binding signal (z-score) [17]: -1
glycan array binding signal (z-score) [18]: -0.6
glycan array binding signal (z-score) [19]: -0.532
glycan array binding signal (z-score) [20]: 1.13
glycan array binding signal (z-score) [21]: 0.57
glycan array binding signal (z-score) [22]: 0.593
glycan array binding signal (z-score) [23]: -0.295
glycan array binding signal (z-score) [24]: -0.049
glycan array binding signal (z-score) [25]: 0.17
glycan array binding signal (z-score) [26]: -0.169
glycan array binding signal (z-score) [27]: -0.062
glycan array binding signal (z-score) [28]: -0.296
glycan array binding signal (z-score) [29]: 0.27
glycan array binding signal (z-score) [30]: 0.483
glycan array binding signal (z-score) (Fuc(a1-3)GlcNAc): 0.277
glycan array binding signal (z-score) [31]: -0.062
glycan array binding signal (z-score) [32]: -0.498
glycan array binding signal (z-score) [33]: 1.15
glycan array binding signal (z-score) [34]: -0.146
glycan array binding signal (z-score) [35]: -0.389
glycan array binding signal (z-score) [36]: -0.287
glycan array binding signal (z-score) [37]: -0.333
glycan array binding signal (z-score) [38]: -0.532
glycan array binding signal (z-score) [39]: -0.288
glycan array binding signal (z-score) [40]: -0.059
glycan array binding signal (z-score) [41]: -0.946
glycan array binding signal (z-score) [42]: 0.215
glycan array binding signal (z-score) [43]: -0.409
glycan array binding signal (z-score) [44]: 0.117
